{"source": "the supplement of paper PMC11417369", "note": "This is one part of the list."}
{"tested_on": "PF3D7_0420300 AP2 domain 1 (GST-tagged)", "assay": "gcPBM binding intensity (ln(normalized median fluorescence intensity)); higher = stronger DNA binding", "in_short": "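The binding buffer was 1× PBS containing 1% milk, 0.2 mg/ml BSA, 0.5% salmon testes DNA and 0.03% Triton X-100. In it, GST-tagged P. falciparum DNA-binding domains expressed in E. coli were applied for 1 h to an Agilent 4 × 180k array of primer-extended double-stranded 36-bp intergenic genomic probes plus negative controls. Binding intensity, read with Alexa488 anti-GST antibody and a 488 nm scan, is the highest Masliner-normalised natural-log median intensity across replicate spots of either probe orientation.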"}
{"sequence": "AGACATTTTTAAGCAAAACATTCATCATCTTATAAT [CACACA_negctrl_site1539]", "gcPBM binding intensity (ln)": 9.03}
{"sequence": "TTTGAAATGATATATAAACACACATATATATATATA [CACACA_site9170]", "gcPBM binding intensity (ln)": 9.45}
{"sequence": "CTAACAACCAAACGCACACACACAAAAAAAAAAATA [CACACA_site400]", "gcPBM binding intensity (ln)": 9.96}
{"sequence": "ATATTGAATTCCAACACATGCAAAACTTTCGGTTTT [TGCATGCA_site485]", "gcPBM binding intensity (ln)": 9.2}
{"sequence": "AACAACTATTAATTTACACACATGTATATATCTTAC [CACACA_site7459]", "gcPBM binding intensity (ln)": 9.69}
{"sequence": "TATTAAAAGGTGAGTACACACATATATGCGTATATA [CACACA_site2102]", "gcPBM binding intensity (ln)": 9.37}
{"sequence": "TAGAAGCAGAAACACACACACATACATACACATACA [CACACA_site1467]", "gcPBM binding intensity (ln)": 9.99}
{"sequence": "TCTATGTAGTTTTTATGTACTAAATAAATAAATAAA [XGTACX_site2599]", "gcPBM binding intensity (ln)": 8.83}
{"sequence": "TTTTCAATATATATTTGTACTTTATTTTATGATATT [GTGCAC_negctrl_site732]", "gcPBM binding intensity (ln)": 9.46}
{"sequence": "GCATTCATTTTTAATACACACAAAAAAAAAATAAAA [CACACA_site2408]", "gcPBM binding intensity (ln)": 9.34}
{"sequence": "TAAATGTCCTTATTTGCACACACACCGATAAGAAAT [CACACA_site5723]", "gcPBM binding intensity (ln)": 9.81}
{"sequence": "ACTATTAACAGTGTAGTGCAAAAAGGTTAATTATTA", "gcPBM binding intensity (ln)": 9.42}
{"sequence": "TACATATATATTTGTTCACACACACCCAAAAAAAAA [CACACA_site8788]", "gcPBM binding intensity (ln)": 9.79}
{"sequence": "TATAAATATATATGTACACACATATACATGTTGAAT [CACACA_site3118]", "gcPBM binding intensity (ln)": 9.48}
{"sequence": "TATAAACATAAATATACACACAAACATCTATGTATT [CACACA_site4804]", "gcPBM binding intensity (ln)": 9.74}
{"sequence": "AAAAAAAAATATCACACACACATAAATATAAACCAA [CACACA_site2279]", "gcPBM binding intensity (ln)": 10.1}
{"sequence": "ATTGGGTTCATCAGCACACACAACATCATGTAATAA [CACACA_site5093]", "gcPBM binding intensity (ln)": 9.5}
{"sequence": "AGAGCATAATAAAACACACACATACATACATATATA [CACACA_site935]", "gcPBM binding intensity (ln)": 9.82}
{"sequence": "TAAAACATCAAGGGGTGTACAAAAAAGATGAACAGG [XGTACX_site6929]", "gcPBM binding intensity (ln)": 9.5}
{"sequence": "AAAAAAAAAAAAACTACACACATAAAATATATTGTG [CACACA_site805]", "gcPBM binding intensity (ln)": 9.44}
{"sequence": "AGGCACTTATAATAATGTACATAAATAAAAAGAAAA [XGTACX_site6037]", "gcPBM binding intensity (ln)": 9.2}
{"sequence": "TATGTAAAAACAGGCACACATATATCATATATATAT [CACACA_site619]", "gcPBM binding intensity (ln)": 9.56}
{"sequence": "TATGTATGCCTGTTTTGTACTTAAGAAAATGTTGCT [XGTACX_site8443]", "gcPBM binding intensity (ln)": 9.28}
{"sequence": "AAAAAAAAAAAAAAAAGTACATAATATAAAATCTAA [XGTACX_site6019]", "gcPBM binding intensity (ln)": 9.13}
{"sequence": "AAAAAAAAAAAAAAATGTACATATTAAGTATAATTA [XGTACX_site4616]", "gcPBM binding intensity (ln)": 9.07}
{"sequence": "CAATTTGGTGTACAGGTGCACATGCCTCACGATAAA [GTGCAC_site9650]", "gcPBM binding intensity (ln)": 9.19}
{"sequence": "TTAGCTCAATTTTTGGGTACACACAAATGTATAATA [XGTACX_site5003]", "gcPBM binding intensity (ln)": 9.33}
{"sequence": "GAAAAATGTAAATACATATATGTACACAAATATATA [GTGCAC_negctrl_site557]", "gcPBM binding intensity (ln)": 9.24}
{"sequence": "TTTAATTCCATAAGTAAACACACAAATGCCAAAATT [CACACA_site9049]", "gcPBM binding intensity (ln)": 9.58}
{"sequence": "AATATTTATAAATTTACACACACACGGGTGAACATA [CACACA_site6979]", "gcPBM binding intensity (ln)": 9.89}
{"sequence": "ATTCTAAATTAAAATACACACATATATACATAATAT [CACACA_site2792]", "gcPBM binding intensity (ln)": 9.49}
{"sequence": "ACCCATTTTAATTTAGTGCACATTTTACCTTTATAC", "gcPBM binding intensity (ln)": 9.69}
{"sequence": "AAAAAAATAACAAAGTGTACTTTTATATTTTACATA [XGTACX_site8954]", "gcPBM binding intensity (ln)": 8.93}
{"sequence": "TTCTGCAGCAATGTTTTTTTTAAATATTTATATGGT [CACACA_negctrl_site1815]", "gcPBM binding intensity (ln)": 9.26}
{"sequence": "TTTTTTTCTTTTTCAAAAAAAAAAAAAAAAAAAATA [GTGCAC_negctrl_site329]", "gcPBM binding intensity (ln)": 8.43}
{"sequence": "GCTAGTTTTTTTTGGCGTACAGTACCGGTTTACTTT [XGTACX_site2606]", "gcPBM binding intensity (ln)": 9.42}
{"sequence": "TTCCTCTTAATATGTGCACACTAAATTATAACATAA [CACACA_site3260]", "gcPBM binding intensity (ln)": 9.19}
{"sequence": "CATACCATACATAAAACACACAAAATTTACATAATA [CACACA_site3100]", "gcPBM binding intensity (ln)": 9.7}
{"sequence": "TATAGTTTTATTATTTATGTGTTAAAATTATACAAG [TGCATGCA_negctrl_site246]", "gcPBM binding intensity (ln)": 9.11}
{"sequence": "TGTATTATAATATTATGTACTTATAAATTTTATATT [XGTACX_site6432]", "gcPBM binding intensity (ln)": 9.2}
{"sequence": "AATTTAAAGTTTTTTTTTTTTTTTTTTTTTTTTTTG [CACACA_negctrl_site1082]", "gcPBM binding intensity (ln)": 8.81}
{"sequence": "TCTCACATTCTTATGGGTACACATGAGAAATTATAA [XGTACX_site6799]", "gcPBM binding intensity (ln)": 8.89}
{"sequence": "TGGGTGGTAAAAATGTGTACATAAAAAAATAATGTT [XGTACX_site2235]", "gcPBM binding intensity (ln)": 9.39}
{"sequence": "ATATTATTATAAAGTGGTACAATAAATGGTATTATA [XGTACX_site391]", "gcPBM binding intensity (ln)": 9.26}
{"sequence": "AAAAGGAATGAAAATTCACACAACTATAAATACATA [CACACA_site5337]", "gcPBM binding intensity (ln)": 9.37}
{"sequence": "GTTACACCAACAAACACACACACACCCACCCACAAA [CACACA_site2427]", "gcPBM binding intensity (ln)": 10.2}
{"sequence": "AAAAAAAATATATATATTAAAGTTTTAATTTTTATA [CACACA_negctrl_site497]", "gcPBM binding intensity (ln)": 9.03}
{"sequence": "TTAGAATTTAGAGAAGTGCATATTAAGTTACGAATT [GTGCAC_site9861]", "gcPBM binding intensity (ln)": 9.22}
{"sequence": "ATTATATATATATATAGTACTTTTTTTTTTTTTTTT [XGTACX_site8801]", "gcPBM binding intensity (ln)": 9.08}
{"sequence": "TTATTGGTTATATAAAGTACATTTGAAATATAATTG [XGTACX_site6553]", "gcPBM binding intensity (ln)": 8.99}
{"sequence": "ATAATAATTTTATGCACACAGAAAAATACAAGGTTA [CACACA_site3510]", "gcPBM binding intensity (ln)": 9.44}
{"sequence": "TTGCCTGACTTGTTCACACATATTTATGATATACAT [CACACA_site5783]", "gcPBM binding intensity (ln)": 9.57}
{"sequence": "TTTTCTTGGTATATGATTTATCCTAAATAAGTAAAT [CACACA_negctrl_site294]", "gcPBM binding intensity (ln)": 9.13}
{"sequence": "TATATCAAATTCTAAACATGCACAAAAAACTTATAA [TGCATGCA_site510]", "gcPBM binding intensity (ln)": 9.23}
{"sequence": "AAGGAAAAACCATTCGCACACACACCGAATATATAA [CACACA_site8403]", "gcPBM binding intensity (ln)": 9.88}
{"sequence": "ACTTAAATAATACATACACACATGTACATACAGAAA [CACACA_site1595]", "gcPBM binding intensity (ln)": 9.66}
